Source: PubChem BioAssay AID488969 (Vanderbilt High Throughput Screening Facility, 2010)
Over roughly 110,000 compounds, “z-score” has its median near -0.1; the highest 2% begin near 2. This is one part of the list. Active and inactive are the calls of the source.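 Rule for the calls: active = z-score in the third read window above 3 or below -3; inactive = the rest.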

biological target: Metabotropic glutamate receptor 8 (Rattus norvegicus) (UniProt P70579); experiment: mGluR8 Gi/Go-coupled signaling modulation – cell-based, rat, thallium flux, HTS, primary screen (AID 488969); details: HEK293 rat mGluR8, GIRK (G protein-gated inwardly rectifying potassium channel) thallium flux, FluoZin2; at 10 µM; stronger effect = higher value; submaximal glutamate (EC20) added with thallium
UniProt P70579, sequence (P70579 whole entry, looked up): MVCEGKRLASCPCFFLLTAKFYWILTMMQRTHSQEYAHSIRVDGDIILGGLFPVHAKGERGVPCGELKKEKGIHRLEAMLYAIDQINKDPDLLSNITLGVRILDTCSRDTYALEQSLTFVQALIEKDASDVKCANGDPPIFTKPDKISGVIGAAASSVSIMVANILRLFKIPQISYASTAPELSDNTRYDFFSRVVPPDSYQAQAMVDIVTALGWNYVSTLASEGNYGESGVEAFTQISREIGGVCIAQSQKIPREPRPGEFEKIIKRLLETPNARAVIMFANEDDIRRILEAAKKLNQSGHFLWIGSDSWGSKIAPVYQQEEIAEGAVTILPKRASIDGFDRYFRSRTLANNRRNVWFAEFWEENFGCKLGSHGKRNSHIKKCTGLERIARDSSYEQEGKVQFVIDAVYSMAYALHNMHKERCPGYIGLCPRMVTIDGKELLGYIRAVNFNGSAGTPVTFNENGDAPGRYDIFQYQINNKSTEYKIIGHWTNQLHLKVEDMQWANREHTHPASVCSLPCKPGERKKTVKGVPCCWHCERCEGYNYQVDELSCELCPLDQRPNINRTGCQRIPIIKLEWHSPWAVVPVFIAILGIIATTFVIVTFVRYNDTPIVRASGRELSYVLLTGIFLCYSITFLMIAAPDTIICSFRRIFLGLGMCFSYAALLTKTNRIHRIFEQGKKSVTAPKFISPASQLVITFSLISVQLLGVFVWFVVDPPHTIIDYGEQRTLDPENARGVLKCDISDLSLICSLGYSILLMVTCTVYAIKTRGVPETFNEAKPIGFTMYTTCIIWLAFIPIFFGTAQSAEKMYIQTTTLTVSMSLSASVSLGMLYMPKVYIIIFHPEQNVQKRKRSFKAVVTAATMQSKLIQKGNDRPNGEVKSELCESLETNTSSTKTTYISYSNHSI

Going from O=C(Cn1nnc(-c2ccccc2F)n1)NCCc1ccccc1 to COc1ccccc1-n1c(C)nnc1SCC(=O)NCc1ccccc1, the z-score falls from -0.146 to -0.334.

Compared with COC(=O)c1cc(Cl)c(NC(=O)/C=C/c2ccc(Cl)cc2)cc1OC, Cc1ccc(/C=C/C(=O)Nc2cc(C)on2)cc1 is higher in z-score: -0.0302 for the first, 0.522 for the second.

Going from O=C(O)c1ccc(Sc2nnc(-c3cccc(Br)c3)o2)c([N+](=O)[O-])c1 to CN1CCN(c2ccc([N+](=O)[O-])cc2C(=O)c2ccccc2)CC1, the z-score rises from -1.27 to -0.393.

Compared with O=C(Cn1nnc2ccccc21)OCC(=O)c1ccc(Cl)c(Cl)c1, O=C(CCN1C(=O)c2ccccc2C1=O)OCn1nnc2ccccc2c1=O is higher in z-score: -0.201 for the first, -0.177 for the second.

First: COc1ccc(CCNC(=O)CN(C)S(=O)(=O)c2cccc3nsnc23)cc1OC
Second: COc1ccc(-c2csc(NC(=O)CCn3cnc4ccccc4c3=O)n2)cc1OC
The z-score of the first is higher: -0.171 for the first, -0.202 for the second.

Going from CCNC(=S)NNC(=O)c1csc2c1CCC(C)C2 (configuration not stated) to Cc1ccc(Nc2c3c(nc4ncnn24)CC(C)CC3)cc1 (configuration not stated), the z-score falls from 0.0328 to -0.481.

Compared with COc1ccc(/C=N/NC(=O)C(=O)Nc2ccccn2)cc1OC, CCOC(=O)c1csc(NC(=O)c2ccc(OC)c(OC)c2)n1 is lower in z-score: 0.813 for the first, 0.186 for the second.

Compared with Cc1nnc(SCC(=O)Nc2ccc3c(c2)OCO3)o1, O=C(CSc1nccn1-c1ccc(Cl)cc1)NCc1ccc2c(c1)OCO2 is lower in z-score: -0.0329 for the first, -0.413 for the second.

Compared with Cc1cc(Br)ccc1NC(=O)c1ccccc1-c1ccccc1, O=C(O)c1ccccc1-c1ccccc1C(=O)NCCCO is lower in z-score: -0.0334 for the first, -0.333 for the second.

Compared with COc1ccc(-c2cc(C(F)(F)F)nc(N3CCCCCC3)n2)cc1, COc1ccc(NS(=O)(=O)c2ccc(O)c(NC(=O)c3ccc(S(=O)(=O)N4CCCCCC4)cc3)c2)cc1 is lower in z-score: 0.144 for the first, 0.0959 for the second.

Compared with O=c1c2ccccc2n2c(-c3cccc(Cl)c3)nnc2n1Cc1ccccc1, O=C(CSc1nnc2scc(-c3ccccc3)n12)N1CCN(Cc2ccccc2)CC1 is lower in z-score: 1.45 for the first, -0.819 for the second.

First: COc1cccc(-n2c(Cc3cc(=O)[nH]c(=O)[nH]3)nnc2SCC(=O)N2CCCC2)c1
Second: COc1cccc(-n2nnc3c(=O)n(CC(=O)N4CCC(C)CC4)cnc32)c1
The z-score of the first is lower: -0.354 for the first, 0.0581 for the second.

First: Cn1c(=O)[nH]c(=O)c2c1nc(N1CCCCCC1)n2CCSc1nc2ccccc2[nH]1
Second: Cn1c(=O)[nH]c(=O)c2c1nc(N1CCOCC1)n2CCCSc1ncccn1
The z-score of the first is lower: -0.571 for the first, -0.178 for the second.

First: COc1ccc(-c2nnc(CSc3nc4ccccc4c(=O)n3CC(C)C)o2)cc1OC
Second: COc1nc2ccccc2c(=O)n1OCC(C)C
The z-score of the first is lower: -0.54 for the first, 0.0226 for the second.

First: Cc1ccc(S(=O)(=O)N(CC(O)CN(C)C)c2ccccc2)cc1 (configuration not stated)
Second: Cc1ccc(S(=O)(=O)NCCSCc2ccccc2)cc1
The z-score of the first is higher: 0.219 for the first, -0.24 for the second.

Compared with COC(=O)c1ccc2c(=O)n(NC(C)=O)c(=S)[nH]c2c1, COc1ccccc1CNC(=O)c1c(O)c2cc(OC)c(OC)cc2[nH]c1=O is higher in z-score: -0.28 for the first, 0.0684 for the second.

First: O=C(N/N=C/c1cccc(OCc2ccccc2)c1)c1cccs1
Second: CCOc1cccc(C(=O)NC(=S)Nc2ccccc2)c1
The z-score of the first is lower: -0.0806 for the first, 1.97 for the second.

Compared with Cc1ccc(C)c(NS(=O)(=O)c2cc(C(=O)NCCC3=CCCCC3)ccc2C)c1, CCN(CC)S(=O)(=O)c1ccc(N2CCOCC2)c(NS(=O)(=O)c2cc(C(C)(C)C)ccc2C)c1 is lower in z-score: 0.0312 for the first, -0.103 for the second.

First: O=C(NCCN1CCN(c2ccccc2F)CC1)c1cccn2c(=O)c3ccccc3nc12
Second: COc1ccc(CCNC(=O)c2ccc(CN3CCC(Cc4ccccc4)CC3)cc2)cc1
The z-score of the first is lower: -0.425 for the first, -0.304 for the second.

First: N#Cc1nc(-c2ccccc2)oc1NCCN1CCCCC1
Second: CCS(=O)(=O)N1CCCC(C(=O)NCCN2CCC(Cc3ccccc3)CC2)C1 (configuration not stated)
The z-score of the first is higher: 1.23 for the first, -0.302 for the second.

Compared with O=[N+]([O-])c1cc(S(=O)(=O)N2CCCC2)ccc1N/N=C/c1cccnc1, COc1ccccc1NS(=O)(=O)c1cc([N+](=O)[O-])ccc1N/N=C/c1sc(N2CCOCC2)nc1-c1ccccc1 is lower in z-score: -0.195 for the first, -0.289 for the second.

First: CCn1c(C)csc1=NC(=O)c1ccccc1
Second: CC/C(=N/N=C(\CC)c1ccccc1)c1ccccc1
The z-score of the first is higher: 0.492 for the first, -0.0677 for the second.

Going from CC(C)n1nc(C(=O)Nc2nnc(SCc3c(Cl)cccc3Cl)s2)c2ccccc2c1=O to O=S(=O)(Cc1ccccc1Cl)CC(O)COc1ccccc1Cl (configuration not stated), the z-score rises from -0.401 to -0.273.

Going from Nc1nnc(-c2ccco2)s1 to O=C(c1cccs1)N(Cc1ccco1)c1nc(-c2ccc(F)cc2)cs1, the z-score falls from 0.345 to -0.619.

Compared with Cn1c(=O)c2c(nc(Br)n2CC(=O)c2cccs2)n(C)c1=O, Cn1cnc2c1c(=O)n(Cc1ccc(F)cc1Cl)c(=O)n2C is lower in z-score: -0.0755 for the first, -0.412 for the second.

Compared with CCOC(=O)C1=C(C)N=C2c3ccccc3C(=O)C2C1c1ccccc1 (configuration not stated), COC(=O)c1ccccc1Sc1c(/C=N/OC(=O)c2ccccc2)c(C(F)(F)F)nn1C is higher in z-score: -0.101 for the first, 0.737 for the second.

Compared with COCCOC(=O)c1c(C)n(C)c2ccc(OC(=O)c3ccco3)cc12, CCOC(=O)c1c(C)n(C)c2cc(-c3ccc(C)cc3)c(O)cc12 is higher in z-score: -0.203 for the first, -0.14 for the second.

Compared with CC(C)CNC(=O)c1cc([N+](=O)[O-])ccc1N1CCCCC1, Cc1cccc(N2CCN(C(=O)C(C)C)CC2)c1C is lower in z-score: 0.455 for the first, 0.0205 for the second.

First: COC(=O)c1cn(-c2ccccc2)nc1-c1ccncc1
Second: COC(=O)c1cc(/C=C/c2ccccc2)on1
The z-score of the first is higher: -0.152 for the first, -1.23 for the second.

Going from COc1ccc(NC(=O)[C@H](COCc2ccccc2)NC(=O)OC(C)(C)C)cc1 to CCOc1ccc(N(CC(=O)Nc2ccc(OC)cc2)S(C)(=O)=O)cc1, the z-score rises from 0.329 to 0.896.

First: O=C(CSc1nccn1-c1ccccc1)c1ccc(Br)cc1
Second: O=C(C(Sc1ccccc1)c1ccc(Br)cc1)N1CCOCC1 (configuration not stated)
The z-score of the first is lower: -0.2 for the first, -0.0285 for the second.

Going from COCc1nnc(NC(=O)CC(C)C)s1 to CC(C)(C)c1nnc(NC(=O)NS(=O)(=O)c2ccccc2)s1, the z-score falls from 0.0678 to 0.0318.

Going from Cc1cc2cc3c(cc2nc1SCC(=O)Nc1c(C)cccc1C)CCC3 to COC(=O)C1=C(O)/C(=C\c2cc(C)n(-c3ccccc3C)c2C)N=C1C, the z-score falls from -0.104 to -0.389.

Compared with CCOC(=O)CNC(=O)CN1C(=O)CCS(=O)(=O)c2ccccc21, O=C(OCC(=O)N1CCCc2ccccc21)c1cncc(Br)c1 is lower in z-score: 0.54 for the first, -0.0721 for the second.

Going from CC(=O)N1CCc2cc(S(=O)(=O)CCC(=O)O)ccc21 to CC(=O)N1CCc2cc(C(=O)CN3CCCN(Cc4ccc(F)cc4)C3)ccc21, the z-score falls from 0.536 to 0.249.

First: Cc1ccc2oc(-c3ccc(NC(=O)c4cccnc4)cc3)nc2c1
Second: O=C(Nc1ccc(CN2CCOCC2)cc1)c1cccc(F)c1
The z-score of the first is lower: -0.38 for the first, 0.0821 for the second.

Going from COCCNC(=O)COc1cccc(Oc2ccccc2)c1 to CCOCCCNC(=O)CCCOc1ccccc1, the z-score rises from -0.445 to 0.0157.

Going from CCCC1=C(C(=O)OCC)C(c2ccccc2OC)NC(=O)N1 (configuration not stated) to CCOC(=O)c1cccc(Nc2ncnc3ccccc23)c1, the z-score falls from -0.0802 to -0.0839.

Compared with COc1ccc2[nH]c(=O)c(C(c3nnnn3C3CCCC3)N3CCN(Cc4ccc5c(c4)OCO5)CC3)cc2c1 (configuration not stated), Cc1nc(Nc2ccc3c(c2)OCCO3)c2oc3ccccc3c2n1 is higher in z-score: -0.401 for the first, -0.339 for the second.

First: CCc1ccccc1N(CC(=O)NCCSCc1ccco1)S(C)(=O)=O
Second: COc1ccc(N(C(=O)c2ccco2)S(=O)(=O)c2cccs2)cc1
The z-score of the first is higher: 0.26 for the first, -0.713 for the second.

First: COc1ccc(-c2ccnc(SCC(=O)Nc3ccccn3)n2)cc1
Second: COc1cccc(/C=N/NC(=O)CCCC(=O)Nc2ccc(Br)cc2)c1
The z-score of the first is lower: -0.886 for the first, -0.166 for the second.

Going from C/C(=N\Nc1ccc(F)cc1)c1ccncc1 to CS(=O)(=O)NCC(c1cccnc1)N1CCN(c2ccc(F)cc2)CC1 (configuration not stated), the z-score falls from -0.156 to -0.636.

First: CCOC(=O)N1CCN(S(=O)(=O)c2cc(Br)cnc2N)CC1
Second: Cc1cc(Cl)c(S(=O)(=O)N2CCCCCC2)cc1OCC(N)=O
The z-score of the first is lower: 0.404 for the first, 1.66 for the second.

Going from COc1ccc(C2=Nn3c(nnc3-c3ccncc3)SC2)cc1OC to Cc1nn(Cc2ccc(F)cc2)c(C)c1NC(=O)c1cnn2cccnc12, the z-score falls from -0.0218 to -0.449.

Going from COc1cccc2c1OCC1COc3c(c(=O)n(C)c(=O)n3C)C21 (configuration not stated) to CC1CCN(C2=NC(=O)/C(=C/c3cn(-c4ccccc4)nc3-c3cccc(S(=O)(=O)N(C)C)c3)S2)CC1, the z-score rises from -0.00656 to 0.0819.

First: Cc1ccc(SCC2=NNC(=O)C2)cc1
Second: Cc1ccc(NC(=O)CN(C)C(=O)CN2C(=O)NC(C)(c3ccccc3)C2=O)cc1 (configuration not stated)
The z-score of the first is lower: -0.291 for the first, 0.797 for the second.

First: COCCNC(=S)Nc1ccc2nsnc2c1
Second: S=C(NCc1ccccn1)Nc1ccc(Cl)c(Cl)c1
The z-score of the first is higher: -0.103 for the first, -0.494 for the second.

First: O=C1C2C3c4ccccc4C(c4ccccc43)C2c2nc3ccccc3n21 (configuration not stated)
Second: O=S(=O)(Nc1ccc(-n2cccc2)cc1)c1ccccc1
The z-score of the first is lower: -0.0943 for the first, -0.0716 for the second.

Compared with CCCCOC(=O)Cn1c(=O)n(CC(=O)OCCCC)c2cc(C)ccc21, CCCOc1cc(C)c(S(=O)(=O)NCCOC)cc1C is higher in z-score: 0.161 for the first, 1.15 for the second.

Going from Cc1cc(C)c2nc(N3CCCC(C(=O)NCCN4CCOCC4)C3)sc2c1 (configuration not stated) to C=CCn1c(SCC(=O)NCC2CCCO2)nnc1C1CCCCC1 (configuration not stated), the z-score rises from -1.3 to 1.34.

Going from CCCCCNCc1ccc(Br)cc1 to NS(=O)(=O)c1ccc(CNC(=O)/C=C/c2c(Cl)cccc2Cl)cc1, the z-score falls from -0.224 to -0.309.

Compared with Cc1ccc(S(=O)(=O)N(CC(=O)N2CCC(C(N)=O)CC2)Cc2ccc(F)cc2)cc1, O=C(OCC(=O)N1CCOCC1)c1ccccc1Cc1ccccc1 is lower in z-score: 1.01 for the first, -0.121 for the second.

Going from Cc1sc2nc(NCCO)[nH]c(=O)c2c1C to CC(=NC(C)C)C1=C(O)C(C)OC1=O (configuration not stated), the z-score falls from 0.606 to -0.0446.

Going from O=C(/C=C/c1ccc(Cl)cc1Cl)n1cccn1 to CC(C)(C)/C(O)=C(/C#N)c1nc2ccccc2[nH]1, the z-score rises from -0.586 to -0.0828.

Work on O=C(CCc1ccc(Oc2cc([N+](=O)[O-])cc([N+](=O)[O-])c2)cc1)NC1CCCC1 yielded a z-score of -0.239.

For C=CCNC(=S)NNC(=O)COc1ccc(Cl)cc1Cl, the z-score was active: 6.1.
With COc1ccc(C(=O)Nc2ccc(S(=O)(=O)NCc3ccco3)cc2)cc1OC the z-score was active: 3.13.
For CCCCN(CCCC)C(=S)N/N=C/c1c(C)[nH]n(-c2ccccc2)c1=O, the z-score was active: 10.4.
